# Source: PubChem BioAssay AID485360 (National Center for Advancing Translational Sciences (NCATS), 2010)
# Out of some 230,000 compounds screened, about 1,500 (0.65%) were called active. The shares of active, inactive and inconclusive entries below differ from those in the screen. Calls follow the shape of the dose curve; as a rule, active = well fitted inhibition curve with a large enough effect; inconclusive = small, poorly fitted or top-dose-only effect; inactive = no such curve, though single readings can be large or run the other way. A potency beside an inconclusive call is a rough fit, not a confirmed value.
# Biological target: Lethal(3)malignant brain tumor-like protein 1 (Homo sapiens) (UniProt Q9Y468)
# Assay: qHTS Assay for the Inhibitors of L3MBTL1; also: nearly all actives have a fitted effect of over 60% in size
# Conditions: AlphaScreen L3MBTL1–H3K9me1 peptide binding; activity, negative = inhibition: at 57.1 µM (top of the series)
# From the text: The histone code is comprised of many post-translational modifications that occur mainly in histone tail peptides. The identity and location of these marks are read by a variety of histone binding proteins that are emerging as important regulators of cellular differentiation and development and are increasingly being implicated in numerous disease states. Small molecule probes that disrupt the interaction between histone binding proteins and chromatin would enable a systematic chemical biology study of proteins that read the histone code and could potentially reveal new targets for drug discovery. However, no such small molecules are known. This dearth of quality molecular probes can largely be attributed to the novelty of the target class and the lack of screening assays. This proposal details the development of the first high-throughput screening assay for the discovery of inhibitors of methyl-lysine binding proteins and how it can be be used to initiate a full-scale discovery effort for antagonists of histone binding proteins. Specifically, this work focuses on an AlphaScreen(tm)-based HTS assay for Malignant Brain Tumor (MBT) domain-containing proteins, which bind to the lower methylation states of lysine residues present in histone tail peptides.
# To each well, 2 uL of L3MBTL1 protein (final 50 nM) and 1 uL biotinylated histone peptide monomethylated at Lys9 [b-AHA-H3(1-15)K9me1] (final 75 nM) was added using a nanoliter dispenser. Formation of a protein-peptide complex proceeded at room temperature for 30 min. A Kalypsys pin-tool was employed to transfer 23 nL of library compound solution in DMSO to each well. Cefsulodin, found in a pilot screen of the LOPAC library to be a weak inhibitor of L3MBTL1 binding, was used as an intraplate control with a 16-point titration in duplicate. Following a 30 min incubation of the protein-peptide complex with compounds at room temperature, a mixture of 40 ug/mL each streptavidin-coated donor and nickel chelate acceptor AlphaScreen beads (final 10 ug/mL) was added in a 1 uL dispense for a final volume of 4 uL. Plates were incubated, protected from the light for 30 min at room temperature. Microplates were then be read on an EnVision multilabel plate reader using the 1,536 plate HTS AlphaScreen aperture (excitation time 80 ms, measurement time 240 ms).
# % is scaled to controls: 0 for no effect and ±100 for the full control effect; potency is read from the fitted curve at half-maximal effect; tags tell the direction and shape of the fitted curve.
SMILES,Potency,"activity, negative = inhibition"
O=C(O)CCCCC1CCSS1 (configuration not stated),active: 3.16 µM,
O=S(=O)(c1ccc(F)cc1)N1CCC(N2CCCC2)CC1,"inconclusive: 31.6 µM [inhibitor, single point]",
Cc1cc(C(=O)NNC(=O)CCCOc2ccccc2)c(C)o1,"inconclusive: 7.08 µM [inhibitor, single point]",
Cc1cc(C)c2nc(NNC(=O)c3ccc(S(=O)(=O)N4CCc5ccccc5C4)cc3)sc2c1,"inconclusive: 7.08 µM [inhibitor, full curve]",
CCOc1ccc(NC(=O)CSc2nnc(Cc3cccn3C)n2-c2ccc(F)cc2)cc1,"inconclusive: 20 µM [inhibitor, single point]",
CN(C)S(=O)(=O)c1ccc(NC(=O)Cc2ccc(S(=O)(=O)N3CCOCC3)s2)cc1,"inconclusive: 28.2 µM [inhibitor, single point]",
C1CCc2c(nnc3c2-c2nonc2CC3)C1,"inconclusive: 7.08 µM [inhibitor, single point]",
COc1ccc(NC(=O)N/C=C/c2ccco2)cc1,"inconclusive: 31.6 µM [inhibitor, single point]",
O=C(C[C@H]1C[C@H](C(=O)N2CCCCC2)[C@@]2(CCc3ccccc3)c3[nH]c4cc(-c5ccco5)ccc4c3CCN2C1=O)NCCN1CCOCC1,,inactive: -16.1%
CCOC(=O)c1nnsc1NC(=O)Nc1ccc(OC)cc1,,inactive: 0.0395%
Cc1ccc(C)c(N(CC(=O)Nc2ccccc2C(=O)NCc2ccco2)S(=O)(=O)c2ccccc2)c1,"inconclusive: 6.31 µM [inhibitor, single point]",
CC(C)(C)NC(=S)Nc1ccc(Nc2ccccc2)cc1,"inconclusive: 28.2 µM [inhibitor, single point]",
CCn1c(C)nc2cc(C(=O)NNC(=S)Nc3ccccc3)ccc21,,inactive: 3.19%
O=C(O)CN(CCO)CCN(CC(=O)O)CC(=O)O,,inactive: 11.7%
Cc1nn(-c2ccccc2)c2nc(-c3ccco3)cc(C(=O)O)c12,active: 11.2 µM,
CCC(CC)NC(=O)c1cccc([N+](=O)[O-])c1C,,inactive: 9.83%
O=c1cc(O)nc(SC23CC4CC(CC(C4)C2)C3)[nH]1,,inactive: -1.19%
COc1ccc(N2Cc3cccc(C(=O)N4CCN(C(=O)c5ccco5)CC4)c3C2=O)cc1,active: 28.2 µM,
Cc1cc(C)n(-c2ccc(C(=O)OCC(=O)N(CC(C)C)C3CCS(=O)(=O)C3)cc2)n1 (configuration not stated),,inactive: -2.23%
CCCC(=O)Nc1ccc(Cl)c(NC(=S)NC(=O)c2ccco2)c1,,inactive: 7.31%
C=CCn1c(-c2ccc(Cl)cc2)c[nH]c1=S,,inactive: -5.09%
Cc1ccc(N(CC(=O)N2CCOCC2)S(=O)(=O)c2ccccc2)cc1,,inactive: 1.65%
Cc1nnc(SCc2nc3sc(C(=O)O)c(C)c3c(=O)[nH]2)s1,"inconclusive: 39.8 µM [inhibitor, single point]",
COc1ccc2c(c1)c(=O)oc1cc(OCC(=O)NC3CCCCC3)ccc12,"inconclusive: 31.6 µM [inhibitor, single point]",

SMILES,Potency,"activity, negative = inhibition"
O=C(CCCN1C(=O)/C(=C\c2ccco2)SC1=S)Nc1ccc2ccccc2c1,,inactive: -13%
S=C(N/N=C/c1ccccc1)N1CCOCC1,"inconclusive: 39.8 µM [inhibitor, single point]",
CCOC(=O)C(C(=O)OCC)C(C)(C)/C(C)=N\Nc1ccc([N+](=O)[O-])cc1[N+](=O)[O-],"inconclusive: 35.5 µM [inhibitor, single point]",
CC(C)(C)c1ccc(NC(=O)COC(=O)c2ccc3ncsc3c2)cc1,,inactive: 25.6%
O=C(O)CSc1nnc2c(n1)[nH]c1ccccc12,"inconclusive: 31.6 µM [inhibitor, single point]",
C/C(=N\NC(=O)COc1ccc(C(C)(C)C)cc1)c1ccc(N2CCOCC2)cc1,,inactive: -1.35%
CSc1ccc(Cc2ccc(Cl)cc2Cl)nn1,,inactive: 7.1%
O=C(OCC(=O)c1ccc(Cl)cc1Cl)c1ccccn1,"inconclusive: 31.6 µM [inhibitor, single point]",
O=[N+]([O-])c1cc(Br)cc(/C=N/n2cnnc2)c1O,"inconclusive: 39.8 µM [inhibitor, single point]",
CCOC(=O)C1=C(C)N=c2s/c(=C/c3ccco3)c(=O)n2C1c1cccc(OC)c1 (configuration not stated),"inconclusive: 12.6 µM [inhibitor, partial curve]",
COc1ccc2nc(N=Nc3ccc(O)c4ccccc34)sc2c1,"inconclusive: 0.631 µM [inhibitor, full curve, poor fit]",
Cc1c(NS(=O)(=O)c2cccs2)cccc1-c1nc2cccnc2s1,,inactive: 4.42%
CCc1ccccc1NC(=S)N1CCC(NC(=O)c2ccc(OC)cc2)CC1,,inactive: 1.53%
COc1cc(/C=C2/SC(=S)N(Cc3ccccc3)C2=O)ccc1O,"inconclusive: 17.8 µM [inhibitor, partial curve]",
Oc1ccc(/C=N/Nc2cccc3cccnc23)c(O)c1,"inconclusive: 6.31 µM [inhibitor, single point]",
O=C(CN1CCN(c2nc(-c3ccc(F)cc3)cs2)CC1)NCc1ccc2c(c1)OCO2,"inconclusive: 35.5 µM [inhibitor, partial curve]",
Cc1ccc(C(=O)N2CC(C)OC(C)C2)cc1S(=O)(=O)N1CCCCC1 (configuration not stated),"inconclusive: 0.794 µM [inhibitor, single point]",
CN1CCN(S(=O)(=O)c2ccc(NC(=S)NC(=O)c3ccc(Cl)cc3)cc2)CC1,,inactive: 1.52%
CCS(=O)(=O)N1Cc2ccccc2CC1C(=O)N1CCN(c2ccccc2)CC1 (configuration not stated),"inconclusive: 25.1 µM [inhibitor, single point]",
C=CCn1c(N)c(C(=O)NCC2CCCO2)c2nc3ccccc3nc21 (configuration not stated),"inconclusive: 28.2 µM [inhibitor, single point]",
O=C(NNC(=S)NC(=O)c1ccccc1[N+](=O)[O-])c1ccccc1O,"inconclusive: 1.58 µM [inhibitor, full curve, poor fit]",
COCCn1c(C)cc(C(=O)COC(=O)c2[nH]c(C)c(C(C)=O)c2C)c1C,"inconclusive: 0.794 µM [inhibitor, single point]",
CCOC(=O)Nc1ccc(NCc2ccc(F)cc2)nc1N,"inconclusive: 31.6 µM [inhibitor, single point]",
